Reference: publication PMC12820563
This is one part of the list. The list includes weakly bound sequences.

target: T1, MBP-FoxP3dN (UniProt Q99JB6); assay: PD-seq (MBP pull-down with sequencing); conditions: 20 mM Tris-HCl pH 7.5, 100 mM NaCl, 1.5 mM MgCl2, 0.4 uM protein, 0.1 uM dsDNA library, 30 min, room temperature, amylose pull-down; high values mean tight binding; double strand, one strand shown
T1 sequence: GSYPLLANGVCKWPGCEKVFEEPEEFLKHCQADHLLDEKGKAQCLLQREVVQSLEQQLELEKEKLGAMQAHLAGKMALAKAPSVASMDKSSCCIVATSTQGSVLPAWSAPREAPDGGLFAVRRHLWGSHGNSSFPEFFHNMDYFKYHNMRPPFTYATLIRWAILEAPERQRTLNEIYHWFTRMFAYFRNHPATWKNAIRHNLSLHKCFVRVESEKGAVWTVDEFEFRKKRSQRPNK

Sequence	binding signal (RPM ratio (pull-down/input))
GATGATTGTTCTCCCAGCTGATGAATTGGAGTGCTCGAGTAAACAAATTTTCCTAATCTTTCTGTTCAAGCGCCATCTAC	0.436
GATGATTGTTCTCCCAGCTGATGAATTGCAGCCCTCGAGTAAACAAATTTTCCTAATCTTTCTGTTCAAGCGCCATCTAC	0.85
GATGATTGTTCTCCCAGCTGATGAATTGGTTCACTCGAGTAAACAAATTTTCCTAATCTTTCTGTTCAAGCGCCATCTAC	0.405
GATGATTGTTCTCCCAGCTGATGAATTTCGCGGATCGAGTAAACAAATTTTCCTAATCTTTCTGTTCAAGCGCCATCTAC	0.283
GATGATTGTTCTCCCAGCTGATGAATTGTCTCATTCGAGTAAACAAATTTTCCTAATCTTTCTGTTCAAGCGCCATCTAC	0.539
GATGATTGTTCTCCCAGCTGATGAATTTGTAGTCTCGAGTAAACAAATTTTCCTAATCTTTCTGTTCAAGCGCCATCTAC	5.11
GATGATTGTTCTCCCAGCTGATGAATTGTGCCGGTCGAGTAAACAAATTTTCCTAATCTTTCTGTTCAAGCGCCATCTAC	1.15
GATGATTGTTCTCCCAGCTGATGAATTCAACTACTCGAGTAAACAAATTTTCCTAATCTTTCTGTTCAAGCGCCATCTAC	0.442
GATGATTGTTCTCCCAGCTGATGAATTAGTGCTCTCGAGTAAACAAATTTTCCTAATCTTTCTGTTCAAGCGCCATCTAC	0.804
GATGATTGTTCTCCCAGCTGATGAATTAAGTAGGTCGAGTAAACAAATTTTCCTAATCTTTCTGTTCAAGCGCCATCTAC	0.517
GATGATTGTTCTCCCAGCTGATGAATTCTACGCGTCGAGTAAACAAATTTTCCTAATCTTTCTGTTCAAGCGCCATCTAC	0.52
GATGATTGTTCTCCCAGCTGATGAATTCAAGGGCTCGAGTAAACAAATTTTCCTAATCTTTCTGTTCAAGCGCCATCTAC	0.231
GATGATTGTTCTCCCAGCTGATGAATTTAGCTTATCGAGTAAACAAATTTTCCTAATCTTTCTGTTCAAGCGCCATCTAC	2.42
GATGATTGTTCTCCCAGCTGATGAATTAATTACTTCGAGTAAACAAATTTTCCTAATCTTTCTGTTCAAGCGCCATCTAC	0.897
GATGATTGTTCTCCCAGCTGATGAATTGGCCTGTTCGAGTAAACAAATTTTCCTAATCTTTCTGTTCAAGCGCCATCTAC	0.51
GATGATTGTTCTCCCAGCTGATGAATTCTGTGGTTCGAGTAAACAAATTTTCCTAATCTTTCTGTTCAAGCGCCATCTAC	2.74
GATGATTGTTCTCCCAGCTGATGAATTTCCAGGATCGAGTAAACAAATTTTCCTAATCTTTCTGTTCAAGCGCCATCTAC	0.169
GATGATTGTTCTCCCAGCTGATGAATTGTTGCTATCGAGTAAACAAATTTTCCTAATCTTTCTGTTCAAGCGCCATCTAC	2.98
GATGATTGTTCTCCCAGCTGATGAATTAGCTGAATCGAGTAAACAAATTTTCCTAATCTTTCTGTTCAAGCGCCATCTAC	0.251
GATGATTGTTCTCCCAGCTGATGAATTATAGTCCTCGAGTAAACAAATTTTCCTAATCTTTCTGTTCAAGCGCCATCTAC	0.456
GATGATTGTTCTCCCAGCTGATGAATTGTAAGCGTCGAGTAAACAAATTTTCCTAATCTTTCTGTTCAAGCGCCATCTAC	0.753

Sequence	binding signal (RPM ratio (pull-down/input))
GATGATTGTTCTCCCAGCTGATGAATTCACGCTCTCGAGTAAACAAATTTTCCTAATCTTTCTGTTCAAGCGCCATCTAC	0.686
GATGATTGTTCTCCCAGCTGATGAATTGTGTTGCTCGAGTAAACAAATTTTCCTAATCTTTCTGTTCAAGCGCCATCTAC	4.64
GATGATTGTTCTCCCAGCTGATGAATTAATAGCTTCGAGTAAACAAATTTTCCTAATCTTTCTGTTCAAGCGCCATCTAC	0.556
GATGATTGTTCTCCCAGCTGATGAATTCGGGGCCTCGAGTAAACAAATTTTCCTAATCTTTCTGTTCAAGCGCCATCTAC	0.449
GATGATTGTTCTCCCAGCTGATGAATTGAGGCCTTCGAGTAAACAAATTTTCCTAATCTTTCTGTTCAAGCGCCATCTAC	1.6
GATGATTGTTCTCCCAGCTGATGAATTCGCCATGTCGAGTAAACAAATTTTCCTAATCTTTCTGTTCAAGCGCCATCTAC	0.854
GATGATTGTTCTCCCAGCTGATGAATTAACCATGTCGAGTAAACAAATTTTCCTAATCTTTCTGTTCAAGCGCCATCTAC	0.325
GATGATTGTTCTCCCAGCTGATGAATTTGCGGGTTCGAGTAAACAAATTTTCCTAATCTTTCTGTTCAAGCGCCATCTAC	1
GATGATTGTTCTCCCAGCTGATGAATTCCGCGGTTCGAGTAAACAAATTTTCCTAATCTTTCTGTTCAAGCGCCATCTAC	0.597
GATGATTGTTCTCCCAGCTGATGAATTTGCTTATTCGAGTAAACAAATTTTCCTAATCTTTCTGTTCAAGCGCCATCTAC	6.84
GATGATTGTTCTCCCAGCTGATGAATTACCGAGTTCGAGTAAACAAATTTTCCTAATCTTTCTGTTCAAGCGCCATCTAC	0.417
GATGATTGTTCTCCCAGCTGATGAATTTGGGTGATCGAGTAAACAAATTTTCCTAATCTTTCTGTTCAAGCGCCATCTAC	0.575
GATGATTGTTCTCCCAGCTGATGAATTCAAACCTTCGAGTAAACAAATTTTCCTAATCTTTCTGTTCAAGCGCCATCTAC	0.284
GATGATTGTTCTCCCAGCTGATGAATTTGCCAGGTCGAGTAAACAAATTTTCCTAATCTTTCTGTTCAAGCGCCATCTAC	0.375
GATGATTGTTCTCCCAGCTGATGAATTATGGTAATCGAGTAAACAAATTTTCCTAATCTTTCTGTTCAAGCGCCATCTAC	0.786
GATGATTGTTCTCCCAGCTGATGAATTACAAGACTCGAGTAAACAAATTTTCCTAATCTTTCTGTTCAAGCGCCATCTAC	0.327
GATGATTGTTCTCCCAGCTGATGAATTAGTGAATTCGAGTAAACAAATTTTCCTAATCTTTCTGTTCAAGCGCCATCTAC	0.976
GATGATTGTTCTCCCAGCTGATGAATTTCGCCATTCGAGTAAACAAATTTTCCTAATCTTTCTGTTCAAGCGCCATCTAC	5.04
GATGATTGTTCTCCCAGCTGATGAATTAAAACTATCGAGTAAACAAATTTTCCTAATCTTTCTGTTCAAGCGCCATCTAC	0.372
GATGATTGTTCTCCCAGCTGATGAATTTGTCCGGTCGAGTAAACAAATTTTCCTAATCTTTCTGTTCAAGCGCCATCTAC	1.17
GATGATTGTTCTCCCAGCTGATGAATTGAGTTGATCGAGTAAACAAATTTTCCTAATCTTTCTGTTCAAGCGCCATCTAC	1.81

Sequence	binding signal (RPM ratio (pull-down/input))
GATGATTGTTCTCCCAGCTGATGAATTGAACGCTTCGAGTAAACAAATTTTCCTAATCTTTCTGTTCAAGCGCCATCTAC	0.415
GATGATTGTTCTCCCAGCTGATGAATTGCCACTTTCGAGTAAACAAATTTTCCTAATCTTTCTGTTCAAGCGCCATCTAC	1.35
GATGATTGTTCTCCCAGCTGATGAATTTAGGGATTCGAGTAAACAAATTTTCCTAATCTTTCTGTTCAAGCGCCATCTAC	0.588
GATGATTGTTCTCCCAGCTGATGAATTGCTTCAGTCGAGTAAACAAATTTTCCTAATCTTTCTGTTCAAGCGCCATCTAC	0.407
GATGATTGTTCTCCCAGCTGATGAATTTCTGTCGTCGAGTAAACAAATTTTCCTAATCTTTCTGTTCAAGCGCCATCTAC	0.35
GATGATTGTTCTCCCAGCTGATGAATTCGCTCGTTCGAGTAAACAAATTTTCCTAATCTTTCTGTTCAAGCGCCATCTAC	0.348
GATGATTGTTCTCCCAGCTGATGAATTGCGGCTTTCGAGTAAACAAATTTTCCTAATCTTTCTGTTCAAGCGCCATCTAC	1.98
GATGATTGTTCTCCCAGCTGATGAATTATTACGATCGAGTAAACAAATTTTCCTAATCTTTCTGTTCAAGCGCCATCTAC	0.354
GATGATTGTTCTCCCAGCTGATGAATTTGACCCTTCGAGTAAACAAATTTTCCTAATCTTTCTGTTCAAGCGCCATCTAC	0.506
GATGATTGTTCTCCCAGCTGATGAATTCAATATATCGAGTAAACAAATTTTCCTAATCTTTCTGTTCAAGCGCCATCTAC	0.729
GATGATTGTTCTCCCAGCTGATGAATTCGCCGTTTCGAGTAAACAAATTTTCCTAATCTTTCTGTTCAAGCGCCATCTAC	0.658
GATGATTGTTCTCCCAGCTGATGAATTTGATAAATCGAGTAAACAAATTTTCCTAATCTTTCTGTTCAAGCGCCATCTAC	0.251
GATGATTGTTCTCCCAGCTGATGAATTGGCTTTATCGAGTAAACAAATTTTCCTAATCTTTCTGTTCAAGCGCCATCTAC	1.2
GATGATTGTTCTCCCAGCTGATGAATTTGACGTCTCGAGTAAACAAATTTTCCTAATCTTTCTGTTCAAGCGCCATCTAC	1.33
GATGATTGTTCTCCCAGCTGATGAATTGACAGCTTCGAGTAAACAAATTTTCCTAATCTTTCTGTTCAAGCGCCATCTAC	0.456
GATGATTGTTCTCCCAGCTGATGAATTAGAATTTTCGAGTAAACAAATTTTCCTAATCTTTCTGTTCAAGCGCCATCTAC	0.488
GATGATTGTTCTCCCAGCTGATGAATTCTTGGCTTCGAGTAAACAAATTTTCCTAATCTTTCTGTTCAAGCGCCATCTAC	0.275
GATGATTGTTCTCCCAGCTGATGAATTAAAATAGTCGAGTAAACAAATTTTCCTAATCTTTCTGTTCAAGCGCCATCTAC	0.355
GATGATTGTTCTCCCAGCTGATGAATTCACATTTTCGAGTAAACAAATTTTCCTAATCTTTCTGTTCAAGCGCCATCTAC	0.391
GATGATTGTTCTCCCAGCTGATGAATTGGGATCGTCGAGTAAACAAATTTTCCTAATCTTTCTGTTCAAGCGCCATCTAC	0.386
GATGATTGTTCTCCCAGCTGATGAATTGCCACTCTCGAGTAAACAAATTTTCCTAATCTTTCTGTTCAAGCGCCATCTAC	1.37
